# Among all 360,000 compounds or so, about 6,000 (1.7%) were called active. Inconclusive results, whose numbers are uncertain, are shown with a selection of clear calls. Calls come from the whole dose curve; as a rule, active = well fitted cell-killing curve with a large enough effect; inconclusive = small, poorly fitted or top-dose-only effect, or effect the other way; inactive = flat fitted curve, though single readings scatter. No potency is given beside an inconclusive call; the fits are too rough.
# Assay: qHTS for induction of synthetic lethality in tumor cells producing 2HG: qHTS for the HT-1080-NT fibrosarcoma cell line; note: nearly all actives have a fitted effect of over 55% in size
# Details: HT-1080-NT fibrosarcoma viability, CellTiter-Glo ATP luminescence, 48 h; activity, negative = less viability: at 46.1 µM (top of the series) unless noted
# Text: Unbiased genomic sequencing for 22 glioma genomes found recurrent mutation of IDH1 on chromosome 2q33, a gene encoding the cytosolic isoform of IDH1 associated with the tricarboxylic acid cycle (TCA) that catalyzes the oxidative decarboxylation of isocitrate, yielding alpha-ketoglutarate and CO2 via NADP+ to NADPH conversion. Subsequent studies confirmed the recurrent IDH mutations in up to 70% of secondary gliomas and in 10% of AML cases. In addition, the somatic mutation of cancer-associated IDH1 is a point mutation resulting in various amino-acid substituents at Arginine132 (IDH1 R132), a key residue found in the enzyme's active site that when mutated, results in the loss-of-function in metabolizing isocitrate but confers a gain-of-function to produce the oncometabolite 2-hydroxyglutarate (2HG). This in effect defines IDH1 as an oncogene and provides an extraordinary opportunity to discover chemical probes against mutant IDH1 that may translate into much needed new therapies for glioma and AML patients.
# This assay aims to perform a synthetic lethal screen for chemical probes specific for 2HG-producing tumor cells using matched paired cell lines (1) HT-1080-NT fibrosarcoma cell line that overproduces 2HG and (2) HT-1080-IDH1KD cell line which has IDH1 expression knocked-down. Desirable compounds are toxic to the NT fibrosarcoma cells but not to the IDH1KD cell line. The data in this AID corresponds to the results of the qHTS against the HT-1080-NT fibrosarcoma cell line.
# [1] Dang L, Jin S, Su SM. IDH mutations in glioma and acute myeloid leukemia. Trends of Mol Med. 2010; 16(9): 387-97.
# [2] Dang L et al. Cancer-associated IDH1 mutations produce 2-hydroxyglutarate. Nature. 2010; 465(7300):966.
# NIH Molecular Libraries Probe Production Centers Network [MLPCN]
# NIH Chemical Genomics Center [NCGC]
# Assay Submitter (PI): Lenny Dang Ph.D., Agios Pharmaceuticals
# Suspensions of trypsinized HT-1080-NT cells were dispensed into white, tissue culture-treated, solid 1536-well plates at 5uL/well (750 cells/well final concentration) in RPMI medium supplemented with 5% FBS. Plates were incubated at 37 degrees C for 2 hours, after which 23 nL of compounds or DMSO were delivered to each well using a pin tool. Plates were then incubated at 37 degrees C for an additional 48 hours. CellTiter-Glo viability reagent (Promega) was dispensed into wells (2.5uL/well) and incubated at room temperature for 10 minutes. The plates were measured on a PerkinElmer ViewLux plate reader for luminescent signal (clear filter, 1 sec exp). DMSO-treated control wells and media-only (no cells) control wells were used to normalize %Activity of identified toxic compounds; DMSO-treated wells corresponded to 0%Activity (100% viability), while media-only controls were used to normalize 100%Activity (0% viability).
# Concentration-response curves were fitted to the signals arising from the resulting luminescence. The concentration-effect curves were then classified based on curve quality (r2), response magnitude and degree of measured activity, and compounds were subsequently categorized based on their curve class.
# Potency is the fitted concentration of half-maximal effect; tags give direction and shape of the fitted curve.
Structure (SMILES),"activity, negative = less viability",Potency
Cc1cc(=O)oc2cc(OCC(=O)NC3CCCCC3)c(Cl)cc12,inconclusive: 33.9%,
CCN(CC)c1nc2ccccc2c(N)c1-c1ccccc1,,"inconclusive [cytotoxic, single point]"
Cc1ccccc1N1CCN(Cc2ccc(Br)o2)CC1,inactive: -1%,
Cc1ccc(O)c(C(=O)CC(=O)c2ccccc2Cl)c1,,"inconclusive [cytotoxic, single point]"
CC(C)CN(CC(C)C)C(=O)Cc1coc2ccc3ccccc3c12,,"inconclusive [cytotoxic, single point]"
S=c1nc(C2CC2)n(-c2ccccc2)[nH]1,,"inconclusive [rising, partial curve]"
CCOC(=O)Cc1[nH]nc2c1C(C1C=CCCC1)C(C#N)=C(N)O2 (stereo unspecified),,"inconclusive [cytotoxic, single point]"
CCCn1nc(C(=O)Nc2nc(-c3ccccn3)cs2)c2ccccc2c1=O,,"inconclusive [cytotoxic, full curve, poor fit]"
Cc1cc(NC2CCCCC2)nc(NCc2ccccc2)n1,,"inconclusive [cytotoxic, single point]"
Cc1nc(NNC(=O)c2ccc(Cl)cc2Cl)cc(-c2ccccc2)n1,,"inconclusive [cytotoxic, partial curve, poor fit]"
CCOc1ccc(NS(=O)(=O)c2ccc(C(=O)N(C)Cc3cccc(OC)c3OC)cc2)cc1,inactive: -12.2%,
COc1cc(/C=N/NC(=O)Nc2cccc3nsnc23)cc(OC)c1OC,inactive: 9.56%,
COc1ccc(CCNC(=O)C(NS(=O)(=O)c2cccc3nsnc23)C(C)C)cc1OC (stereo unspecified),inactive: 10.4%,
COc1ccc(-c2nnc(SC(=O)N3c4ccccc4Sc4ccccc43)o2)cc1,,"inconclusive [cytotoxic, single point]"
Cc1cc(Cn2nc(-c3ccccc3)cc2C(=O)NCc2cccc(Br)c2)on1,,"inconclusive [cytotoxic, single point]"
CC1CCc2nc(NC(=O)CCSc3ccccc3)sc2C1 (stereo unspecified),inactive: -1.28%,
O=C(Nc1cccnc1)C1Cc2c(-c3ccc4c(c3)OCO4)ccnc2O1 (stereo unspecified),,"inconclusive [cytotoxic, partial curve]"
CSc1nnc(-c2cccs2)n1-c1ccccc1,inconclusive: -29.9% [cytotoxic],
COc1cc(CN(CCN(C)C)Cc2ccccc2)ccc1OCc1ccccc1,,active: 23.1 µM
Cc1cc(C)c(CN2CCN(C(=O)Cn3cnc(C(=O)Nc4ccc(C)c(C)c4)n3)CC2)c(C)c1,,"inconclusive [cytotoxic, single point]"
COC(=O)CNC(c1ccccc1)c1cc(C)ccc1NC(=O)CNC(=O)OCc1ccccc1 (stereo unspecified),,"inconclusive [cytotoxic, single point]"
CCCCC(=O)Nc1ccc(C(=O)NNC(=O)c2ccc(C)c(Br)c2)cc1,,"inconclusive [cytotoxic, single point]"
CCN1/C(=C/c2ccc3ccc(C)cc3[n+]2CC)Sc2ccccc21,,"inconclusive [cytotoxic, single point]"
CCOC(=O)c1c(C)nn(-c2ccc(NC(=O)c3cccs3)cc2)c1C,,"inconclusive [cytotoxic, single point]"

Structure (SMILES),"activity, negative = less viability",Potency
CC(=O)Nc1cccc(-c2ccnc3c2CC(C(=O)Nc2cccc(Oc4ccccc4)c2)O3)c1 (stereo unspecified),,"inconclusive [cytotoxic, single point]"
COc1ccc(CCNC(=O)C(=O)NCC2OCCN2S(=O)(=O)c2ccccc2)cc1 (stereo unspecified),inactive: 8.7%,
CC(=NNC(=S)N1CCCC1)c1ccccn1,,"inconclusive [cytotoxic, full curve, poor fit]"
CCC1CCCCN1S(=O)(=O)c1ccc(NC(=O)C2CCN(C(=O)c3ccco3)CC2)cc1 (stereo unspecified),,"inconclusive [cytotoxic, single point]"
CCC1(CC)C(=O)NC(=O)NC1=S,inactive: 0.742%,
O=Cc1cccc(Oc2ccc([N+](=O)[O-])cc2[N+](=O)[O-])c1,,"inconclusive [cytotoxic, single point]"
CCOC(=O)c1c(NC(=O)c2ccco2)sc(C(=O)N2CCCC2)c1C,inactive: 6.01%,
Cc1ccc(NC2=NC(c3ccc(F)cc3)n3c(nc(C)cc3=O)N2)cc1 (stereo unspecified),inactive: 3.1%,
CCc1nc2c(OCC(N)=O)cccn2c1N(C)C(=O)C(C)C,,"inconclusive [rising, single point]"
COc1ccccc1OCCn1c(=O)oc2ccc(C)cc21,inactive: -2.54%,
COc1ccccc1C(=O)Nc1nc2ccccc2s1,,active: 25.9 µM
CC(=O)NC(c1ccccc1)c1nc(-c2ccccc2)cs1 (stereo unspecified),inconclusive: 6.09%,
CC1=C(C(=O)O)N2C(=O)C(NC(=O)c3ccn(C)n3)C2SC1 (stereo unspecified),,"inconclusive [cytotoxic, single point]"
CCn1cc(CN2CCCC(CO)(Cc3ccc(F)cc3)C2)c2ccccc21 (stereo unspecified),,"inconclusive [cytotoxic, single point]"
COC(=O)NC(=S)Nc1ccc(Oc2ccc(Cl)cc2Cl)c(Cl)c1,,active: 16.4 µM
Cc1cc(C)c(NC(=O)CN(C)CC(=O)N(C)CC(=O)Nc2c(Cl)cccc2Cl)c(C)c1,inactive: -0.483%,
COc1cc(-c2cc3nc(NCc4cccs4)ccn3n2)cc(OC)c1OC,,"inconclusive [cytotoxic, partial curve, poor fit]"
N#CC1=C(N)C(C#N)(C#N)[C@H](c2ccoc2)[C@H]2CN(Cc3ccccc3)CC=C12,,"inconclusive [cytotoxic, full curve]"
O=C(Nc1cccc(F)c1)C1CCCN1C(=O)OCc1ccccc1 (stereo unspecified),inactive: 11.2%,
CC(=O)Nc1ccc2c(CN3C(=O)NC(C)(c4ccc(C)cc4)C3=O)cc(=O)oc2c1 (stereo unspecified),inconclusive: -38.6% [cytotoxic],
Cc1nn2c(N3CCN(CCO)CC3)c3c(nc2c1-c1ccccc1)CCCC3,,active: 18.4 µM
Cc1onc(-c2ccccc2Cl)c1C(=O)N1CCCc2ccccc21,,"inconclusive [cytotoxic, single point]"
CC(=O)Nc1ccc(S(=O)(=O)N2CCN(CCCOc3cc(C)ccc3C)CC2)cc1,,"inconclusive [cytotoxic, single point]"
CC(C)CN(C(=O)CSc1n[nH]c(-c2cccs2)n1)C1CCS(=O)(=O)C1 (stereo unspecified),inactive: -4.28%,

Structure (SMILES),"activity, negative = less viability",Potency
O=C1Nc2ccccc2C1=Nc1cccc(Cl)c1,inactive: 12.2%,
Cc1ccc(C(=O)NC(=C(Cl)Cl)S(=O)(=O)c2ccc(Cl)cc2)cc1,,"inconclusive [cytotoxic, single point]"
Cc1ccc(CN2Cc3cccc4c3[C@@H](CC2=O)[C@H](O)[C@H](O)C4)cc1,inactive: 7.64%,
CC(C)(C)NC(=O)C(c1ccccc1F)n1c(=O)c(-c2ccccc2)nc2ccccc21 (stereo unspecified),inactive: 9.52%,
CCCNC(=O)c1cc(C2CCCCN2S(=O)(=O)c2cccc3cccnc23)on1 (stereo unspecified),inactive: 16.2%,
CCCC(=O)NC(c1ccc(N(C)C)cc1)c1ccc2cccnc2c1O (stereo unspecified),,"inconclusive [cytotoxic, full curve, poor fit]"
Cc1ccc(C(=O)NCCCNC(=O)COc2ccccc2Cl)cn1,inactive: 14.5%,
OC(CNC1CCCCC1)COCCOc1ccc(Br)cc1 (stereo unspecified),,"inconclusive [cytotoxic, partial curve]"
CCOC(=O)c1c(C)c(C(=O)NCc2cccs2)c(C)n1CC,,"inconclusive [rising, partial curve, poor fit]"
CC(=O)c1cccc(OCCCOc2cccc3cccnc23)c1,inactive: -19%,
Cc1ccc(-c2nnc(Nc3ccc4c(c3)nc(C)n4C)c3ccccc23)cc1,,"inconclusive [cytotoxic, partial curve, poor fit]"
Cc1ccc(-n2cc(CN3CCN(Cc4nccn4C)CC3)c(-c3ccc(F)cc3)n2)cc1,,"inconclusive [cytotoxic, single point]"
COc1ccc(C(=O)Nc2oc(-c3ccccc3)c(-c3ccccc3)c2C#N)cc1OC,,"inconclusive [cytotoxic, single point]"
COc1cccc(-c2cnc3c(NC(C)=O)cc(-c4cccc(NC(C)=O)c4)cn23)c1,,"inconclusive [cytotoxic, single point]"
Cc1cc(=O)[nH]c(SCC(=O)Nc2nc3ccccc3s2)n1,inactive: -6.98%,
Cn1cc([N+](=O)[O-])c(C(=O)Nc2ccc3c(c2)OCCO3)n1,,"inconclusive [cytotoxic, single point]"
COC(=O)Cc1ccc(OC2(C)CCN(Cc3ccccc3)C2)cc1 (stereo unspecified),inconclusive: 9.87%,
O=C1N=C(N2CCOCC2)S/C1=C\c1ccc(OS(=O)(=O)c2ccccc2)cc1,,"inconclusive [cytotoxic, single point]"
CC1(C(=O)Nc2cccc(C(F)(F)F)c2)Cc2c(-c3ccc4c(c3)OCO4)ccnc2O1 (stereo unspecified),,"inconclusive [cytotoxic, single point]"
CC(C)N1CC2(CC(c3ccccc3F)=NO2)CN1C(=O)c1ccc(C(C)(C)C)cc1 (stereo unspecified),inactive: -6.62%,
CC(=O)c1cnn(-c2nc3c(C)cccc3s2)c1C,inactive: -0.274%,
NC(=O)CC(NC(=O)Cc1ccc(Br)cc1)c1ccc(NCc2ccc(F)cc2)c([N+](=O)[O-])c1 (stereo unspecified),,"inconclusive [cytotoxic, single point]"
Cc1ccc(S(=O)(=O)N2CCc3cc4c(cc3C2C)OCCCO4)cc1 (stereo unspecified),,"inconclusive [cytotoxic, single point]"

# Source: PubChem BioAssay AID686970 (National Center for Advancing Translational Sciences (NCATS), 2013)
